Test results published in PubChem BioAssay AID1345082 (National Center for Advancing Translational Sciences (NCATS), 2018).
Where “and” joins values, the source holds several entries; their conditions need not be identical. Equal values may be shown once. In all, about 94,000 compounds went through this assay and about 4,000 (4.3%) were called active. Inconclusive results, whose numbers are uncertain, are shown with a selection of clear calls. The call rests on the fitted dose curve; in most records, active means well fitted inhibition curve with a large enough effect; inconclusive means small, poorly fitted or top-dose-only effect; inactive means no such curve, though single readings can be large or run the other way. Potencies beside an inconclusive call are fits to weak or partial responses and may not hold up.
On the % scale 0 is the no-effect control and ±100 the full control effect; potency means the concentration at half of the fitted maximal effect; tags describe the fitted curve by direction and shape.

Test: Cytotoxic Profiling in NIH 3T3 Cell Line of Diverse Libraries Using Quantitative High-Throughput Screening; further: nearly all actives have a fitted effect of over 55% in size
Settings: NIH 3T3 viability, CellTiter-Glo ATP luminescence, 48-72 h; activity change, negative = cytotoxicity: at 96.7 µM (top of the series) unless noted; series mostly up to 96.7 µM
In short: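 Cytotoxicity is measured as loss of cellular ATP: NIH 3T3 cells (400/well) are exposed to compound for 48 or 72 hr at 37 °C, then CellTiter-Glo luminescence is imaged after 10 min at room temperature.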
In the case of `Cc1cccc(C(=O)N2CCC(c3n[nH]c(=O)n3Cc3ccc(F)cc3)CC2)c1`, the Potency is reported as inconclusive: 28.2 µM [inhibitor, full curve].
For `COc1cccc(S(=O)(=O)N2CCC(Cc3nncn3C(C)C)C2)c1` (centres undefined), the Potency was inconclusive: 70.8 µM [inhibitor, single point].
With `O=C(CC(c1ccccc1)c1cn(Cc2ccccc2)c2ccc([N+](=O)[O-])cc12)N1CCOCC1` (centres undefined) the Potency was inconclusive: 28.2 µM [inhibitor, full curve].
With `O=C(C1CCCC1)N1CCN(CCn2nc3n(c2=O)CCCC3)CC1` the “activity change, negative = cytotoxicity” value was inactive: -13.3%.
With `COCCNC(=O)[C@@H]1CCC[C@@H](NCc2nccs2)CN(C)C(=O)C1` the “activity change, negative = cytotoxicity” value was inactive: -38.6% [at 174 µM].
For `COCc1ccc(C(=O)NCc2cc(C)cc3c(C)c(C)[nH]c23)o1`, the Potency was inconclusive: 50.1 µM [inhibitor, partial curve, poor fit].
With `CCN(CC)Cc1cnc2c(C(=O)N[C@H](C(N)=O)C(C)C)cnn2c1` the “activity change, negative = cytotoxicity” value was inactive: -10.8%.
For `CCCCCC(=O)N1CCC(O)(c2csc(CN3CCc4ccccc4C3)n2)CC1`, the Potency was inconclusive: 50.1 µM [inhibitor, partial curve, poor fit].
For `CCC(=O)NCCn1c(C)nc2cc(S(=O)(=O)N3CCOCC3)ccc21`, the “activity change, negative = cytotoxicity” value was inactive: -16.3%.
With `O=C(NCC(F)(F)F)c1cn2cc(-c3ccc(C(F)(F)F)cc3)sc2n1` the Potency was inconclusive: 44.7 µM [inhibitor, partial curve, poor fit].
For `CNC(=O)c1cc(-c2ccccc2F)cc2c1OCCN2Cc1cccnc1`, the Potency was inconclusive: 79.4 µM [inhibitor, partial curve, poor fit].
In the case of `CCc1ccc(CN2CCN(Cc3ccc(F)c(F)c3)C(CCO)C2)o1` (centres undefined), the Potency is reported as inconclusive: 8.91 µM [inhibitor, partial curve, poor fit].
With `CCC(=O)N1CCC(c2noc(-c3ccccc3)n2)C1` (centres undefined) the “activity change, negative = cytotoxicity” value was inactive: -8.08%.
For `COc1ccccc1-c1ccc(C(=O)N2CCC(NC(=O)C3CC3)CC2)cc1`, the Potency was inconclusive: 44.7 µM [inhibitor, partial curve, poor fit].
For `C#CCNC(=O)C[C@@H]1C[C@@H](C(C)C)[C@H](CNC(=O)NC2CCCCC2)C=C1C`, the Potency was inconclusive: 112 µM [inhibitor, single point].
In the case of `Cc1nc(C)c(C(=O)N2CC[C@@H]3CN(Cc4ccccc4)[C@@H]3C2)s1`, the “activity change, negative = cytotoxicity” value is reported as inactive: -15%.
For `Cc1cccc(C(=O)N2CCC(Oc3ccccc3F)(C(=O)O)CC2)c1`, the “activity change, negative = cytotoxicity” value was inactive: -0.497%.
For `CC(C)CCN1CCC(N2CCN(Cc3cccnc3)CC2)C1=O` (centres undefined), the “activity change, negative = cytotoxicity” value was inactive: -15.4%.
With `COc1ccc(C(=O)N2CCC(c3n[nH]c(=O)n3-c3ccccc3)CC2)cc1F` the “activity change, negative = cytotoxicity” value was inactive: -14.1%.
In the case of `CN(Cc1ccccc1)[C@H]1[C@H](O)[C@H](CO)O[C@@H]1CNCc1ccc(F)cc1`, the “activity change, negative = cytotoxicity” value is reported as inactive: -10.6%.
In the case of `O=C(NCc1ccc(F)cc1)c1nc2sccn2c1-c1cccc(C(F)(F)F)c1`, the Potency is reported as inconclusive: 56.2 µM [inhibitor, partial curve, poor fit].
In the case of `CCN1CCCC1CNC(=O)CCc1ccc2c(c1)CN(C(=O)NC(C)C)CCO2` (centres undefined), the “activity change, negative = cytotoxicity” value is reported as inactive: -8.78%.
In the case of `CSc1ccc(-c2cccc(C(=O)NCCN[S+](=O)([O-])c3cccs3)c2)cc1`, the Potency is reported as inconclusive: 31.6 µM [inhibitor, full curve, poor fit].
For `CN1CC(=O)N(C2CCCNCC2)Cc2c1ncnc2N1CCCC(CO)C1` (centres undefined), the “activity change, negative = cytotoxicity” value was inactive: -12.8%.
With `CCOCCNC(=O)C1CCCN(c2nccc(Nc3ccccc3F)n2)C1` (centres undefined) the Potency was inconclusive: 50.1 µM [inhibitor, partial curve, poor fit].
For `Cc1ccc(NC(=O)N2CCC(N3CC4CC(C3)[C@H]3CCCC(=O)N3C4)CC2)cc1F` (some centres undefined), the “activity change, negative = cytotoxicity” value was inactive: -12.2%.
In the case of `COCCn1c2c(c(=O)n1-c1ccccc1)CCN(C(=O)c1cccc(C#N)c1)C2`, the Potency is reported as inconclusive: 89.1 µM [inhibitor, partial curve].
With `CC(C)c1ccc(N2CC(C(=O)N(C)CCc3cnn(C)c3)CC2=O)cc1` (centres undefined) the “activity change, negative = cytotoxicity” value was inactive: -22.5%.
For `COc1cccc(CN2Cc3cc(NC(=O)c4cccc(OC)c4)ccc3OCC2=O)c1`, the Potency was inconclusive: 28.2 µM [inhibitor, full curve, poor fit].
With `COCCN1CCN(C(=O)CC(c2ccccc2)c2ccc(Cl)cc2)CC1` (centres undefined) the “activity change, negative = cytotoxicity” value was inactive: -21.9%.
In the case of `Cc1cccc(S(=O)(=O)N2CCCC(Cn3c(C)nc4cccnc43)C2)c1` (centres undefined), the Potency is reported as inconclusive: 44.7 µM [inhibitor, partial curve, poor fit].
For `Cc1cccc(-n2nc(C)c(CCC(=O)N(C)C(C)C)c2Oc2ccc(F)cc2F)c1`, the Potency was active: 39.8 µM.
With `O=C(NC1CCN(c2cc(-c3cccs3)[nH]n2)C1)c1ccc(Br)o1` (centres undefined) the “outcome” value was “inactive”.
For `Cn1ncc2c(C(=O)NC3CCCCCC3)cc(-c3ccccc3F)nc21`, the “activity change, negative = cytotoxicity” value was inactive: -21.9%.
In the case of `Cc1sc2ccn(Cc3ccc(F)cc3)c(=O)c2c1C(=O)NCc1ccccn1`, the Potency is reported as inconclusive: 50.1 µM [inhibitor, partial curve, poor fit].
With `O=C(N[C@@H]1CN(Cc2ccccc2F)C[C@H]1CO)c1ccccc1` the “activity change, negative = cytotoxicity” value was inactive: -23.8%.
With `CCOc1ccc(C(=O)N2CCCN(c3cc(-c4ccc(Cl)cc4)[nH]n3)CC2)cc1` the Potency was inconclusive: 39.8 µM [inhibitor, partial curve, poor fit].
For `CCOC(=O)C1(Cc2ccc(Cl)cc2)CCN(Cc2ccc(OC)cc2O)CC1`, the Potency was inconclusive: 50.1 µM [inhibitor, partial curve, poor fit].
With `O=C(C1CCCCN1Cc1ccc(-c2cccs2)cc1)N1CCN(c2ncccn2)CC1` (centres undefined) the Potency was inconclusive: 50.1 µM [inhibitor, partial curve, poor fit].
For `CN(C)c1ncnc2sc3c(c12)CCN(Cc1ccco1)C3`, the Potency was inconclusive: 44.7 µM [inhibitor, partial curve, poor fit].
For `CC(C)CCNC(=O)c1cnc2c(c1)N(C(=O)Cc1ccc(C(C)C)cc1)CCC2`, the Potency was active: 100 µM.
With `Cc1ccc2c(C(=O)NCc3ccccc3Cl)cc(NC(=O)C(C)C)cc2n1` the Potency was inconclusive: 70.8 µM [inhibitor, single point].
For `O=C1OC[C@@H]2CCN(Cc3ccc(C(F)(F)F)cc3)Cc3ccc(F)cc3N12`, the Potency was inconclusive: 100 µM [inhibitor, partial curve, poor fit].
For `COc1ccc(C(=O)N2CCCC(c3noc(COc4ccccc4)n3)C2)cc1OC` (centres undefined), the “activity change, negative = cytotoxicity” value was inactive: -6.39%.
For `Cc1cc(Cn2cc3c4c(cccc42)[C@H](CC(C)C)N[C@H](C(=O)NCc2ccc(C)o2)C3)no1`, the Potency was inconclusive: 79.4 µM [inhibitor, partial curve, poor fit].
In the case of `Cc1cnc(C2CCN(Cc3ccc(F)cc3F)C2)n1Cc1ccccc1` (centres undefined), the Potency is reported as inconclusive: 50.1 µM [inhibitor, partial curve, poor fit].
In the case of `COc1ccc(C(=O)N2C[C@@H](CO)[C@@H]3Oc4ccc(Cl)cc4[C@@H]32)cc1`, the Potency is reported as inconclusive: 50.1 µM [inhibitor, single point].
For `Cc1ccc(NC(=O)N2Cc3[nH]cnc3C[C@H]2c2nc(-c3ccncc3)no2)cc1`, the “activity change, negative = cytotoxicity” value was inactive: 1.98% [at 174 µM].
For `Cc1noc(-c2ccco2)c1C(=O)NCCOc1ccccc1`, the Potency was inconclusive: 44.7 µM [inhibitor, partial curve, poor fit].
With `CC(=O)N1Cc2ccccc2CC2(CCN(CCc3ccccc3)C2)C1` (centres undefined) the “activity change, negative = cytotoxicity” value was inactive: -30.4%.
In the case of `Cc1ccccc1-c1cc(-c2cn[nH]c2)c2cncn2c1`, the Potency is reported as active: 70.8 µM.
In the case of `O=C(N[C@H]1C[C@H]2C(=O)NC[C@@H](CCC(=O)N3CCCC3)N2C1)c1cccs1`, the “outcome” value is reported as “inactive [at 138 µM]”.
In the case of `CCOc1ccccc1CN1CCC2(CCN(C(=O)Nc3ccc(Cl)cc3)CC2)Oc2ccccc21`, the Potency is reported as inconclusive: 56.2 µM [inhibitor, partial curve, poor fit].
In the case of `O=C(c1ccc(C(F)(F)F)cc1)N1CC2CC(C1)[C@H]1CCCC(=O)N1C2` (some centres undefined), the “outcome” value is reported as “inactive”.
For `CCOCC(=O)N1CCC(Nc2cccn3ncnc23)CC1`, the “activity change, negative = cytotoxicity” value was inactive: -8.78%.
In the case of `CC(C)Oc1ccccc1CN1CCC2(CC1)CC(O)CCO2` (centres undefined), the “activity change, negative = cytotoxicity” value is reported as inactive: -15.1%.
In the case of `Cc1ccccc1C(=O)N1CCCC(C(=O)N2CCC(c3nc4ccncc4[nH]3)C2)C1` (centres undefined), the “activity change, negative = cytotoxicity” value is reported as inactive: -23.7%.
With `O=C(Nc1ccc2c(N3CCCC3)ncnc2c1)c1c(F)cccc1F` the Potency was inconclusive: 44.7 µM [inhibitor, partial curve, poor fit].
For `COc1ccc(C(=O)Nc2cnc(-c3ccc(Cl)cc3)nc2)cc1`, the “outcome” value was “inactive”.
In the case of `CC(C)(C)C(=O)NC1CCN(Cc2cccc(-c3cccs3)c2)CC1`, the Potency is reported as inconclusive: 89.1 µM [inhibitor, partial curve, poor fit] and inconclusive: 50.1 µM [inhibitor, partial curve, poor fit].
In the case of `O=C(NCc1ccccc1F)C1CCN(c2ccnc3ccnn23)CC1`, the Potency is reported as inconclusive: 10 µM [inhibitor, full curve, poor fit].
For `Cc1ccc(CNc2ccc3nnc(C4CCC4)n3n2)o1`, the Potency was inconclusive: 50.1 µM [inhibitor, partial curve, poor fit].
In the case of `COc1ccc(-c2cn3c(n2)CO[C@@H](CNC(=O)C2CCCC2)C3)cc1`, the “activity change, negative = cytotoxicity” value is reported as inactive: -5.67% [at 138 µM].
For `O=C1c2cnc(-c3cc4ccccc4o3)nc2OCCN1Cc1ccccc1`, the Potency was inconclusive: 35.5 µM [inhibitor, partial curve, poor fit].
In the case of `Cc1ccccc1-c1[nH]nc2ncc(-c3cn[nH]c3)nc12`, the Potency is reported as inconclusive: 39.8 µM [inhibitor, partial curve].
With `Cc1cc(C2CCCN2C(=O)c2ccccc2)on1` (centres undefined) the “outcome” value was “inactive”.
In the case of `CC1=C[C@@H](CNC(=O)Cn2cnnn2)[C@H](C(C)C)C[C@H]1Cc1nc2ccccc2n1C`, the Potency is reported as active: 89.1 µM.
With `O=C(C[C@@H]1CCNC[C@@H]1Cc1cc(CSc2ccccc2)on1)NC1CCCCC1` the Potency was active: 100 µM.
With `O=C(NCc1cccc(Cl)c1)C1CCCN1C(=O)c1cccc(-c2ccccn2)c1` (centres undefined) the Potency was inconclusive: 44.7 µM [inhibitor, partial curve, poor fit].
